Patent publication US20250277055A1 (SAMSUNG BIOLOGICS, published 2025)

Biological target: T1, VEGF (UniProt P15692-4 27-191)
T1 sequence (looked up): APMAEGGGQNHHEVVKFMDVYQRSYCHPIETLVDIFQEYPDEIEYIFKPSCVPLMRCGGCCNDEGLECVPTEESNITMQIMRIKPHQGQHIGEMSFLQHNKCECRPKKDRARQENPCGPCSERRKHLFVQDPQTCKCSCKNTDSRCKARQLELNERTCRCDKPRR
Assay: cell-based or functional assay

- IC50 (nM) in HUVEC proliferation assay: 6.77 nM
B1: R-SBL6 (bispecific antibody, human IgG1, human IgG4, kappa)
heavy 1: [letters of about 120 residues not shown]ASPREPQVCTLPPSREEMTKNQVSLSCAVKGFYPSDIAVEWESNGQPENNYKTTPPVLDSDGSFFLVSKLTVDKSRWQQGNVFSCSVMHEALHNHYTQKSLSLSPGKGGGGSGGGGSASTKGPSVFPLAPSSRSTSESTAALGCLVKDYFPEPVTVSWNSGALTSGVHTFPAVLQSSGLYSLSSVVTVPSSSLGTKTYTCNVDHKPSNTKVDKRVESKYGPPCPPCPAPELLGGPSVFLFPPKPKDTLMISRTPEVTCVVVDVSHEDPEVKFNWYVDGVEVHNAKTKPREEQYNSTYRVVSVLTVLHQDWLNGKEYKCKVSNKALPAPIEKTISKAKGQPREPQVYTLPPSREEMTKNQVSLSCAVKGFYPSDIAVEWESNGQPENNYKTTPPVLDSDGSFFLVSKLTVDKSRWQQGNVFSCSVMHEALHNHYTQKSLSLSPGK
light 1: [letters of about 100 residues not shown]RTPREPQVYTLPPCREEMTKNQVSLWCLVKGFYPSDIAVEWESNGQPENNYKTTPPVLDSDGSFFLYSKLTVDKSRWQQGNVFSCSVMHEALHNHYTQKSLSLSPGKGGGGSGGGGSRTVAAPSVFIFPPSDEQLKSGTASVVCLLNNFYPREAKVQWKVDNALQSGNSQESVTEQDSKDSTYSLSSTLTLSKADYEKHKVYACEVTHQGLSSPVTKSFNRGES
heavy 2: EVQLVESGGGLVQPGGSLRLSCAASGYTFTNYGMNWVRQAPGKGLEWVGWINTYTGEPTYAADFKRRFTFSLDTSKSTAYLQMNSLRAEDTAVYYCAKYPHYYGSSHWYFDVWGQGTLVTVSSASTKGPSVFPLAPSSKSTSGGTAALGCLVKDYFPEPVTVSWNSGALTSGVHTFPAVLQSSGLYSLSSVVTVPSSSLGTQTYICNVNHKPSNTKVDKKV[letters of human IgG1 Fc with changes not shown]
light 2: DIQMTQSPSSLSASVGDRVTITCSASQDISNYLNWYQQKPGKAPKVLIYFTSSLHSGVPSRFSGSGSGTDFTLTISSLQPEDFATYYCQQYSTVPWTFGQGTKVEIKRTVAAPSVFIFPPSDEQLKSGTASVVCLLNNFYPREAKVQWKVDNALQSGNSQESVTEQDSKDSTYSLSSTLTLSKADYEKHKVYACEVTHQGLSSPVTKSFNRGEC
